# The campaign covered roughly 120,000 compounds. About 5,300 (4.4%) were called active. This list was built around the results that the source calls inconclusive (neither active nor inactive); the mix of calls is not that of the screen. Calls follow the shape of the dose curve; as a rule, active = well fitted inhibition curve with a large enough effect; inconclusive = small, poorly fitted or top-dose-only effect; inactive = no such curve, though single readings can be large or run the other way. Potencies of inconclusive entries are doubtful fits and often do not repeat.
# Experiment: qHTS Primary assay for Inhibitors of Plasmodium falciparum Dd2 growth in vitro; also: nearly all actives have a fitted effect of over 65% in size;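 as to activity, negative = inhibition: plate controls were DMSO vehicle for no effect and reference drug for full effect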
# Details: P. falciparum Dd2 growth, SYBR Green, 72 h; activity, negative = inhibition: at 28.9 µM (top of the series) unless noted; series mostly up to 28.9 µM
# In short: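 Infected erythrocytes (Dd2, 0.3% parasitemia, 2.5% hematocrit final) are added to compound in RPMI-1640/Albumax II medium, grown 72 h at 37C in low oxygen, then lysed with saponin/Triton-X containing SYBR Green and read by fluorescence.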
# Potency is read from the fitted curve at half-maximal effect; tags tell the direction and shape of the fitted curve.
Structure (SMILES),Potency,outcome,"activity, negative = inhibition"
CCN(C(=O)Cn1nc2c3cc(F)ccc3n(Cc3cccc(C)c3)cc-2c1=O)c1cccc(C)c1,"inconclusive: 0.794 µM [inhibitor, full curve, poor fit]",–,–
Cc1ccc(-c2ncc(C(=O)Nc3ccc(F)cc3C)c(-c3ccncc3)n2)cc1,"inconclusive: 14.1 µM [inhibitor, partial curve, poor fit]",–,–
COc1cccc(C(=O)Nc2ccc3ncnc(N4CCCCC4)c3c2)c1,–,inactive,–
COc1cccc(CNC(=O)[C@@H]2C[C@@H](O)CN2C2CCN(C(=O)c3nccc4ccccc34)CC2)c1,–,inactive,–
O=C(Cc1ccccc1)Nc1ccnn1C1CCN(Cc2cccc3nonc23)CC1,"inconclusive: 17.8 µM [inhibitor, single point]",–,–
CCCCN(C)C(=O)CN1C(=O)NC2(CCC(C)CC2)C1=O (stereo not given),"inconclusive: 0.199 µM [inhibitor, full curve, poor fit]",–,–
COC(=O)N1CCCN(c2nc3ncccc3o2)CC1,"inconclusive: 2.51 µM [inhibitor, full curve]",–,–
Cc1nnnn1-c1cccc(C(=O)N2CCCC3(CC2)CNC(=O)O3)c1 (stereo not given),–,–,inactive: 0.797%
CCC1Oc2ccc(NC(=O)Cc3ccc(F)cc3)cc2CN(Cc2cccc(OC)c2)C1=O (stereo not given),active: 3.98 µM,–,–
COc1ccc(NC(=O)c2c(NCc3ccc(C)o3)sc3c2CCC(C)C3)cc1 (stereo not given),active: 8.91 µM,–,–
O[C@H]1[C@H](NCc2ccncc2)[C@H]2CO[C@H](O2)[C@@H]1N1CCC(Cc2ccccc2)CC1,–,inactive [at 44.1 µM],–
CN(C)c1cccc(-c2cnc(Nc3cccc(N[S+](C)(=O)[O-])c3)c3c2CCO3)c1,"inconclusive: 35.5 µM [inhibitor, partial curve, poor fit]",–,–
O=C(NC1CCN(c2nc3ncccc3o2)CC1)c1cccc(Cl)c1,"inconclusive: 7.94 µM [inhibitor, partial curve, poor fit]",–,–
CCOC(=O)N1CCc2c(sc3c2c(=O)n(Cc2ccccc2)c(=O)n3Cc2cccc(Cl)c2)C1,active: 11.2 µM,–,–
CCOc1ccccc1NC(=O)CN1C(=O)C(c2ccccc2)=NC12CCCC2,"inconclusive: 17.8 µM [inhibitor, single point]",–,–
CCCc1noc(-c2cn(C3CCN(C(=O)c4cc(F)ccc4Cl)CC3)nn2)n1,"inconclusive: 3.98 µM [inhibitor, single point]",–,–
COc1ccccc1NC(=O)N1CC=C(c2c[nH]c3ccccc23)CC1,"inconclusive: 10 µM [inhibitor, single point]",–,–
CSc1ccc(CNC(=O)c2ccc3c(c2)N(C)C2CCCCN2C3=O)cc1 (stereo not given),–,inactive,–
O=C1CC(c2ccccc2)N(Cc2ccncc2)CCCN(C(=O)c2ccc3ncccc3c2)CCN1 (stereo not given),active: 6.31 µM,–,–
COCCNC(=O)c1nc(-c2ccsc2)c2ccccn12,"inconclusive: 22.4 µM [inhibitor, single point]",–,–
COc1cccc(CNC(=O)CN2C(=O)NC3(CCC(C(C)(C)C)CC3)C2=O)c1 (stereo not given),"inconclusive: 2 µM [inhibitor, full curve]",–,–
O=C(c1ccccc1)N1C[C@@H]2C[C@H](C1)c1ccc(-c3cncnc3)c(=O)n1C2,–,–,inactive: -7.07% [at 44.1 µM]

Structure (SMILES),Potency,outcome,"activity, negative = inhibition"
CC(C)C(=O)N1CCC2(COc3ncccc3S(=O)(=O)N2)C1 (stereo not given),–,–,inactive: 3.01%
COc1ccc(CNC(=O)CC[C@H]2CNC(=O)[C@@H]3[C@@H](CCN3C(C)C)N2C)cc1,"inconclusive: 10 µM [inhibitor, partial curve]",–,–
COCCOC(=O)C1=C(C)N=C2SC=C(CC(=O)N3CCCCC3C)N2C1c1ccccc1 (stereo not given),"inconclusive: 3.16 µM [inhibitor, full curve, poor fit]",–,–
CC(=O)Nc1ccc(CN2CCC(N3Cc4ccccc4C3=O)CC2)cc1,–,–,inactive: 0.469%
Cc1cn2nnc(C(=O)NCc3ccc(C(C)C)cc3)c2c(=O)[nH]1,"inconclusive: 4.47 µM [inhibitor, partial curve, poor fit]",–,–
CCOc1ccccc1C(=O)N(Cc1ccc(N(C)C)cc1)Cc1ccco1,"inconclusive: 20 µM [inhibitor, single point]",–,–
Cn1ccc2cc(S(=O)(=O)N3CCCN(C(=O)Nc4ccc(Br)cc4)CC3)ccc21,"inconclusive: 12.6 µM [inhibitor, single point]",–,–
Cc1ccc(Nc2c(-c3ccc(N(C)C)cc3)nc3ccccn23)cc1,"inconclusive: 12.6 µM [inhibitor, single point]",–,–
O=C(c1ccc(CN2C(=O)NC3(CCS(=O)(=O)CC3)C2=O)cc1)N1CCCCC1,–,–,inactive: -5.36%
O=S(=O)(c1ccc(F)cc1)N1CCC(c2noc(C3CC3)n2)C1 (stereo not given),–,–,inactive: 23.4% [at 5.79 µM]
COc1ccc(-c2[nH]c(-c3ccc(OC)c(OC)c3)nc2SCC(=O)Nc2ccccc2)cc1,"inconclusive: 12.6 µM [inhibitor, partial curve, poor fit]",–,–
O=C(NCc1ccc(C(F)(F)F)cc1F)[C@H]1CCC[C@@H](O)C1,"inconclusive: 0.178 µM [inhibitor, full curve, poor fit]",–,–
Cc1cccc(NC(=O)c2oc3ccc(S(=O)(=O)N4CCCCC4)cc3c2C)c1C,"inconclusive: 10 µM [inhibitor, single point]",–,–
O=C(c1ccc(F)cc1)N1CCC2(CC1)CC(c1cccnc1)=NO2,–,–,inactive: -15.7% [at 44.1 µM]
O=C(c1cccc(Cl)c1)N1CCC(c2nc3c(nnn3Cc3ccc(F)cc3F)c(=O)[nH]2)CC1,active: 2 µM,–,–
Cc1noc(C)c1-c1cc2cc(C(C)C)oc2c(-c2cccnc2)n1,"inconclusive: 2.51 µM [inhibitor, partial curve, poor fit]",–,–
COc1cc(C(=O)Nc2ccccc2OCc2cc(=O)n3cc(C)sc3n2)cc(OC)c1OC,"inconclusive: 0.708 µM [inhibitor, full curve]",–,–
COc1ccc(C(=O)c2cn(Cc3ccccc3F)c3ccc(F)cc3c2=O)cc1,"inconclusive: 14.1 µM [inhibitor, single point]",–,–
Cc1nc(-c2ccc(OC3CCN(C(=O)NC4CCCCC4)C3)cc2)no1 (stereo not given),–,–,inactive: 17.6% [at 5.79 µM]
CC(C)c1ccc(CC(=O)N2CCCc3ncc(C(=O)NCCc4ccccn4)cc32)cc1,"inconclusive: 20 µM [inhibitor, partial curve, poor fit]",–,–
O=C(N[C@H]1CCOC[C@H]1C1CCOCC1)c1cc(=O)[nH]c2ccc(F)cc12,–,–,inactive: 2.47%
Cc1nc(-c2c3n(c(=O)n(CC(=O)Nc4ccc(Cl)cc4)c2=O)CCCCC3)no1,"inconclusive: 10 µM [inhibitor, single point]",–,–

Structure (SMILES),Potency,outcome,"activity, negative = inhibition"
CCc1ccc(C2c3c(n[nH]c3C)C(=O)N2c2ccc(C)cc2)cc1 (stereo not given),"inconclusive: 17.8 µM [inhibitor, single point]",–,–
COc1ccccc1CN1Cc2cc(NC(=O)c3ccc([N+](=O)[O-])cc3)ccc2OC(C)C1=O (stereo not given),"inconclusive: 2.51 µM [inhibitor, single point]",–,–
CC(C)N1CCN(C(=O)C23CCCC=C2N(c2ccccc2)C(=O)CC3)CC1 (stereo not given),"inconclusive: 20 µM [inhibitor, partial curve, poor fit]",–,–
COc1ccc(-c2nc(C)nc3c2CCN(C(=O)c2ccccc2)CC3)cc1,–,inactive,–
O=C(Cc1ccc(F)cc1)NCc1nnc2cc(-c3nc(C4CC4)no3)ccn12,active: 4.47 µM,–,–
O=C(N1CCCCC1)N1CCn2c(nnc2-c2cncc(Br)c2)C1,–,–,inactive: -17.5%
CCC1CN(C(=O)Nc2cccc3c2CCCC3)c2cc(C)ccc2O1 (stereo not given),"inconclusive: 17.8 µM [inhibitor, single point]",–,–
CCOC(=O)c1c(C)oc2nc(C)nc(NCCCN3CCN(c4cccc(C)c4)C(C)C3)c12 (stereo not given),"inconclusive: 10 µM [inhibitor, single point]",–,–
Fc1cccc(-c2cnc([C@@H]3COCCN3Cc3ccc(Cl)cc3)[nH]2)c1,"inconclusive: 17.8 µM [inhibitor, single point]",–,–
CCN1CCN(CC(=O)NCc2ccc3[nH]c(-c4ccc(F)cc4)c(C)c3c2)CC1,"inconclusive: 10 µM [inhibitor, partial curve, poor fit]",–,–
O=C(c1ccc(Cl)cc1)N1CCC(n2cc(-c3ccccn3)[nH]c2=O)CC1,–,–,inactive: -13.3%
CCCCNC(=O)CSc1nc2n[nH]c(C)c2c(=N)n1-c1ccccc1CC,"inconclusive: 10 µM [inhibitor, single point]",–,–
O=C(NCc1ccc(Cl)cc1)C1CCCN(c2ncnc3onc(-c4ccc(F)cc4)c23)C1 (stereo not given),"inconclusive: 10 µM [inhibitor, single point]",–,–
Cc1cccc(NC(=O)c2c(Br)sc3c2CCCC3)c1,–,inactive,–
COc1ccc(Nc2nnc(-c3ccc(C)c(S(=O)(=O)N4CCOCC4)c3)c3ccccc23)cc1,"inconclusive: 15.8 µM [inhibitor, single point]",–,–
O=C(c1ccccc1)N1CCn2c(nn(-c3ccc(F)cc3F)c2=O)C1,–,–,inactive: 4.81%
COc1ccccc1N1CCN(C(=O)CSc2nc(-c3ccc(C(C)C)cc3)no2)CC1,active: 0.355 µM,–,–
COc1cccc(N2C(=O)NC(=NC3CCCC3)C23CCCN(CCC(C)C)C3)c1 (stereo not given),active: 12.6 µM,–,–
CCn1ncc(CN2CCn3c(nnc3[C@@H]3C[C@@H](O)CN3Cc3cccnc3)C2)c1C,–,–,inactive: -5.54%
Cc1ccc(OCC(=O)Nc2ccc3nc(SCC(=O)N4CCCC4)sc3c2)cc1C,"inconclusive: 17.8 µM [inhibitor, single point]",–,–
COc1ccc(NC(=O)CCCS(=O)(=O)c2nc(-c3ccc(OC)c(OC)c3)cc(C(F)(F)F)n2)cc1OC,"inconclusive: 14.1 µM [inhibitor, partial curve, poor fit]",–,–
